# Reference: PubChem BioAssay AID686979 (National Center for Advancing Translational Sciences (NCATS), 2013)
# The campaign covered roughly 420,000 compounds. About 50,000 (12%) were called active. The inconclusive results got no clear call from the source; some entries with a clear call stand among them for comparison. The call rests on the fitted dose curve; in most records, active means well fitted inhibition curve with a large enough effect; inconclusive means small, poorly fitted or top-dose-only effect; inactive means flat fitted curve, though single readings scatter. Potencies of inconclusive entries are left out as doubtful fits.
# Assay: qHTS for Inhibitors of human tyrosyl-DNA phosphodiesterase 1 (TDP1): qHTS in cells in presence of CPT; further: nearly all actives have a fitted effect of over 55% in size
# Settings: chicken DT40 Tdp1-/-;hTDP1 cells + 20 nM CPT, ATP luminescence, 48 h; activity change, negative = growth inhibition: at 46.2 µM (top of the series)
# Method in brief: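 Chicken DT40 Tdp1-/- cells stably complemented with human TDP1 were seeded at 400 cells/well in medium containing 20 nM camptothecin, exposed to pin-transferred compounds, and grown at 37 °C for at least 48 hr. Viability was read as ATP luminescence.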
# On the % scale 0 is the no-effect control and ±100 the full control effect; potency means the concentration at half of the fitted maximal effect; tags describe the fitted curve by direction and shape.
SMILES,"activity change, negative = growth inhibition",Potency
Cc1cc2ccccc2n2c(SCC(=O)Nc3cccc(C(F)(F)F)c3)nnc12,inconclusive: -13% [inhibitor],–
COc1ccc(C)cc1Nc1ncnc2c1nnn2Cc1ccccc1Cl,–,"inconclusive [inhibitor, single point]"
Cc1[nH]c(=S)c(C#N)c(C)c1CCC#N,inconclusive: -33.8% [inhibitor],–
O=C(Oc1coc(CSc2nnc(NC(=O)C3CC3)s2)cc1=O)c1c(F)cccc1F,inactive: 17.9%,–
CC1(C)C2CCC1(CS(=O)(=O)NCc1ccc(C(F)(F)F)cc1)C(=O)C2 (centres undefined),–,"inconclusive [inhibitor, single point]"
CCOC(=O)c1ccc(NC(=O)CSc2nccn2Cc2ccc(OC)cc2)cc1,–,active: 14.6 µM
Cc1cc(C)cc(C(=O)Nc2nnc3n2CCS3)c1,–,"inconclusive [inhibitor, single point]"
N#Cc1nc(-c2ccc(OCc3ccc(Cl)cc3)cc2)oc1N1CCC(C(N)=O)CC1,–,inactive
COc1ccccc1C1CN(c2ccccc2)N=C1c1cccs1 (centres undefined),–,"inconclusive [inhibitor, single point]"
Cc1cc(Cl)ccc1OCC(=O)N(Cc1ccc(N(C)C)cc1)CC1CCCO1 (centres undefined),–,"inconclusive [inhibitor, single point]"
Cc1c(C(=O)N2CCOCC2)c(S(=O)(=O)Nc2ccc(OC(F)(F)F)cc2)c(C)n1C,–,"inconclusive [inhibitor, single point]"
O=C(C1CC1)N1CCN(c2nc3c(F)cc(F)cc3s2)CC1,–,"inconclusive [inhibitor, partial curve]"
Cc1ccc(OCC(O)CN2CCN(c3ccccc3)CC2)cc1 (centres undefined),–,"inconclusive [inhibitor, partial curve]"
Cc1nn(-c2ccccc2)c2nc(C3CC3)cc(C(=O)NCc3ccccc3Cl)c12,–,"inconclusive [inhibitor, single point]"
Cc1nc(C#N)c(N/N=C/c2c(F)cccc2Cl)o1,inactive: -6.95%,–
CN(Cc1c(C(=O)N/N=C/c2ccc(O)cc2)nnn1-c1nonc1N)C1CCCCC1,–,"inconclusive [inhibitor, single point]"
Cc1cccc(CNC(=O)c2sc3ncnc(N(C)C4CCCCC4)c3c2C)c1,–,active: 18.4 µM
Cc1ccc(C)c(OCCC(=O)OCC(=O)c2c(N)n(C)c(=O)n(C)c2=O)c1,inactive: -1.7%,–
CCOc1cc(C(=O)NN=C2CCCC2)cc(OCC)c1OCC,inactive: -6.7%,–
O=C(Cn1nc(Cl)nc1Cl)c1ccc2c(c1)OCCO2,–,active: 5.17 µM
CNC(=O)C[C@@H]1C(=O)N(CCc2ccccc2)CC1(C)C,inactive: 21.9%,–
COC(=O)[C@]1(Cc2ccccc2)N[C@H](c2ccc(-c3ccc(F)cc3)cc2)[C@@H]2C(=O)N(C)C(=O)[C@@H]21,–,active: 18.4 µM

SMILES,"activity change, negative = growth inhibition",Potency
C=CCNC(=S)NNc1nc2c(c(=O)[nH]1)C1(CCCC1)Cc1ccccc1-2,–,"inconclusive [inhibitor, partial curve]"
COC(=O)[C@@]1(Cc2ccc(F)cc2)[C@H]2c3cc(C(=O)N(C)C)n(Cc4ccccn4)c3C[C@H]2CN1C(=O)c1ccccc1,–,"inconclusive [inhibitor, single point]"
COCCn1c(COc2cccc(OC)c2)nnc1SCC(=O)NC1CCCC1,inactive: 0.285%,–
CC1C(=O)Nc2ccc(S(=O)(=O)NCCc3ccc(Cl)cc3)cc2NC1=O (centres undefined),–,"inconclusive [inhibitor, single point]"
CCOC(=O)[C@]12CCC=C1N(Cc1ccc(Cl)cc1Cl)C(=O)[C@H](CC(=O)NCc1ccccc1)C2,–,"inconclusive [inhibitor, single point]"
CCC(CO)NCc1ccc(OCC(=O)Nc2cccc(C(F)(F)F)c2)c(OC)c1 (centres undefined),–,"inconclusive [inhibitor, single point]"
C=CCn1c(-c2cccnc2Cl)nc2cc(Cl)c(Cl)cc21,–,active: 18.4 µM
CCCNC(=O)C1(C)CCN1C(=O)c1ccccc1CCc1ccccc1 (centres undefined),–,"inconclusive [inhibitor, single point]"
CCc1nccn1CCC(=O)NC1CCCc2c1cnn2-c1ccc(F)cc1F (centres undefined),–,"inconclusive [inhibitor, single point]"
O=C1NC[C@H](Cc2ccccc2)N(C[C@H]2CCCN2C[C@H](Cc2ccccc2)N2C[C@H](Cc3ccccc3)N(CC3CCCCC3)C(=O)C2=O)C1=O,–,active: 20.6 µM
COc1ccc(CCNC(=O)c2cc(C(C)C)on2)cc1OC,–,"inconclusive [inhibitor, single point]"
O=C(CCc1c[nH]c2ccccc12)N1CCN(c2ccc(F)cc2)CC1,inactive: -27.5%,–
CC(C)N(c1ccccc1)c1ccc(NC(=O)[C@@H]2O[C@H](CO)[C@H](O)[C@H](O)[C@H]2O)cc1,inactive: -14.1%,–
CCCOc1ccc(Cc2nn3c(=O)/c(=C/c4ccco4)sc3nc2=O)cc1,–,"inconclusive [inhibitor, partial curve]"
CCCc1nc2ccc(Cl)cn2c1Cc1ccccc1,–,active: 6.51 µM
COc1ccc(C(=NNc2ccccc2C(=O)O)c2ccc(OC)cc2)cc1,–,"inconclusive [inhibitor, single point]"
Nc1ccn(C2C=CC(CO)O2)c(=O)n1 (centres undefined),inactive: -12.2%,–
O=C(c1cc(C(F)(F)F)cc(C(F)(F)F)c1)N1CCC2(CC1)CN(Cc1ccccc1)C2,–,"inconclusive [inhibitor, single point]"
Cc1ccccc1C(=O)OCC(=O)NCC1COc2ccccc2O1 (centres undefined),–,"inconclusive [inhibitor, single point]"
CCOc1ccccc1C(=O)Nc1cc(-c2ccc(C)cc2)no1,–,"inconclusive [inhibitor, single point]"
COc1ccc(Cl)cc1NC(=O)CN(C)C(=O)c1cc(-c2cccs2)nn1-c1ccccc1,–,"inconclusive [inhibitor, single point]"
O=C(CCC(=O)N1CCOc2ccccc21)NCCCc1ccccc1,inactive: 2.84%,–
